Laboratory results from PubChem BioAssay AID485313 (National Center for Advancing Translational Sciences (NCATS), 2010).
Among all 320,000 compounds or so, about 7,600 (2.4%) were called active. The shares of active, inactive and inconclusive entries below differ from those in the screen. The call rests on the fitted dose curve; in most records, active means well fitted activation curve with a large enough effect; inconclusive means small, poorly fitted or top-dose-only effect; inactive means no such curve, though single readings can be large or run the other way. Potencies of inconclusive entries are left out as doubtful fits.

Test: qHTS Assay for NPC1 Promoter Activators; further: nearly all actives have a fitted effect of over 60% in size;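 on activation: reporter is driven by a mutant NPC1 promoter; % of control where 0% means no effect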
Conditions: Huh7 NPC1 promoter luciferase reporter, 24 h; series mostly up to 9.22 µM; activation: at the top concentration
Method in brief: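 In 1536-well qHTS, Huh7 cells harboring an NPC1 promoter–luciferase construct received compound for 24 h; activation was quantified by luminescence following luciferase reagent addition.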
Potency means the concentration at half of the fitted maximal effect; tags describe the fitted curve by direction and shape.

| SMILES | Potency | activation |
| --- | --- | --- |
| Cc1ccc2nc(-c3ccc(NC(=O)c4cccnc4)cc3)oc2c1 | inconclusive [activator, partial curve] |  |
| N#Cc1c(NC(=O)CCCC(=O)O)sc2c1CCCCC2 | inconclusive [activator, full curve] |  |
| CC1CC(C)(C)CC2(C1)NC(=O)N(CC(=O)NCc1ccccc1F)C2=O (centres undefined) |  | inactive: -0.784% |
| O=C(Cc1cccc2ccccc12)NC(=S)Nc1cccc(C(=O)O)c1 |  | inactive: -1.38% |
| O=C(Cn1cc(C(F)(F)F)ccc1=O)NCc1ccc(F)cc1 | inconclusive [activator, single point] |  |
| CC(COc1ccc(/C=C/c2ccccc2)cc1)[N+](C)(C)C (centres undefined) | inconclusive [activator, single point] |  |
| CC(=O)c1ccc(N=Nc2ccc(C)cc2)cc1 | active: 0.316 µM |  |
| COc1ccc(NC(=O)c2ccc(NC(=O)CCS(=O)(=O)c3cccs3)cc2)cc1 | inconclusive [activator, partial curve] |  |
| COc1ccc(CCNC(=O)CSc2nc3[nH]ncc3c(=O)n2-c2ccc(C)c(Cl)c2)cc1OC | inconclusive [activator, partial curve] |  |
| Cc1cc(Br)ccc1NC(=O)CCSc1ccccc1 |  | inactive: 1.33% |
| O=C(CCc1ccccc1)Nc1ccccc1F | inconclusive [activator, partial curve] |  |
| Cc1ccc(CONC(=O)c2ccccc2)cc1 | inconclusive [activator, partial curve] |  |
| O=C(Nc1ccccc1)Nc1ccc(F)cc1F | inconclusive [activator, partial curve] |  |
| COCCn1c(SCC(=O)c2c(-c3ccccc3)n(C)c3ccccc23)nnc1-c1ccncc1 |  | inactive: -0.816% |
| O=C(CSc1nnc2ccccn12)N1CCc2ccccc21 | active: 2.82 µM |  |
| O=C(CSc1nnc(NC(=O)c2ccccc2F)s1)NCC1CCCO1 (centres undefined) | inconclusive [activator, partial curve] |  |
| COc1cccc(/C=N/Nc2cc(Cl)nc(C)n2)c1O | inconclusive [activator, single point] |  |
| Nc1nonc1-c1noc(CCCN2C(=O)c3ccccc3C2=O)n1 | inconclusive [activator, partial curve] |  |
| COc1cc(/C=N/NC(N)=O)ccc1OCC(=O)Nc1ccc(C)c(C)c1 |  | inactive: 3.1% |
| COc1cccc(C(=O)/C=C/Nc2ccc(NC(C)=O)cc2)c1 | inconclusive [activator, partial curve] |  |
| Cc1ccccc1/C=N/Nc1ncnc2nc[nH]c12 | inconclusive [activator, single point] |  |
| COc1cc(N)c(Cl)cc1C(=O)OCC(=O)N1CCc2ccccc21 |  | inactive: 1.93% |
| COc1ccc(C=C2C(=O)c3ccccc3C2=O)cc1O |  | inactive: 0.373% |
| Cc1cccc(NC(=O)CSc2nc3ccccc3o2)c1 | active: 1.41 µM |  |
| CCCC(=O)c1ccc(N2CCCCCC2)c(F)c1 | active: 3.16 µM |  |

| SMILES | Potency | activation |
| --- | --- | --- |
| CC(C)OC(=O)c1ccc2nc3ccccc3nc2c1 | active: 2.82 µM |  |
| O=C(Cc1ccc(Br)cc1)NNC(=O)Nc1ccc(Cl)cc1 |  | inactive: -4% |
| CC1CCC(NC(=O)c2ccc3snnc3c2)CC1 (centres undefined) | inconclusive [activator, single point] |  |
| CC(C)(C)c1ccc(-c2noc(-c3ccc4c(c3)CCO4)n2)cc1 | inconclusive [activator, full curve, poor fit] |  |
| CN1CCN(c2ccc(NC(=O)c3ccc(Br)o3)cc2)CC1 | active: 1.58 µM |  |
| CCOC(=O)C1CCN(C(=O)Nc2ccc3c(c2)nc(C)n3C)CC1 | inconclusive [activator, partial curve] |  |
| Cc1ccc(C)c(C(=O)O/N=C(\N)c2ccc(Br)cc2)c1 | inconclusive [activator, partial curve] |  |
| Cc1ccc(C(=O)NCCc2c[nH]c3ccccc23)s1 | active: 3.55 µM |  |
| O=C(CSc1nnc(NC(=O)c2ccccc2Cl)s1)Nc1ccc2c(c1)oc1ccccc12 | active: 3.55 µM |  |
| CCc1ccc(NC(=O)C(=O)NCc2ccccn2)cc1 | inconclusive [activator, single point] |  |
| O=C(c1ccc(COc2ccc(Cl)cc2)cc1)N1CCCCC1 | inconclusive [activator, full curve, poor fit] |  |
| Cc1occc1C(=O)N/N=C/c1c[nH]c2ccccc12 | inconclusive [activator, partial curve] |  |
| COc1ccc(NC(=O)CSc2ncccn2)cc1S(=O)(=O)N1CCCCC1 |  | inactive: -3.11% |
| O=C(NCC1CCCO1)c1c(O)c2ccccc2[nH]c1=O (centres undefined) | inconclusive [activator, partial curve] |  |
| CC(/C=C/c1ccc(N(C)C)cc1)=N\N=C1\NC(=O)CC(C(=O)Nc2ccccc2)S1 (centres undefined) | inconclusive [activator, single point] |  |
| O=C(NOCc1ccccc1)c1ccc([N+](=O)[O-])cc1 | inconclusive [activator, single point] |  |
| Cc1ccc(S(=O)(=O)N2CCN(C(=O)COC(=O)CCOc3ccc(C(C)(C)C)cc3)CC2)cc1 |  | inactive: -9.1% |
| Cc1cccc(OCC(=O)NCC(=O)N=Nc2c(O)[nH]c3ccc([N+](=O)[O-])cc23)c1 |  | inactive: -4.82% |
| NS(=O)(=O)c1ccc(N/N=C/C=C/c2ccccc2[N+](=O)[O-])cc1 | inconclusive [activator, partial curve] |  |
| O=c1c2ccccc2ncn1/N=C/c1ccccc1 | active: 1 µM |  |
| CCOc1ccc(OCc2ccc(C(=O)N3CCc4ccccc4C3)o2)cc1 | inconclusive [activator, single point] |  |
| Cc1cccc(NC(=O)c2ccc(S(=O)(=O)NCc3ccco3)cc2)n1 | inconclusive [activator, single point] |  |
| COc1cc(N/N=C/c2ccccc2O)ncn1 | inconclusive [activator, single point] |  |
| O=C1/C(=C/N(C(=O)c2ccco2)c2ccc(Cl)cc2)Sc2ccccc21 | inconclusive [activator, partial curve] |  |
